Structures can show the parent of a compound that is named as a salt. The campaign covered roughly 1,800 compounds. About 50 (3%) showed activity. Some of the results follow.
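Also: fibroblasts sorted 14 days after bleomycin, GFP+ and GFP− mixed 1:1 in 384-well plates (GFP− as in-well control), imaged after Hoechst and NucView530 staining, reference wells lacked compound.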

The assay concerns mouse p16Ink4a+/- lung fibroblasts (INKBRITE, bleomycin-injured). As to the kind of experiment: percentage of GFP+ (p16Ink4a+) fibroblasts among all cells in well; higher = less depletion of p16Ink4a+ cells, active = 20 or less. Particulars: 1 µM; 3 days.
In the case of `O=C(CSc1nc2c(c(=O)n1-c1ccccc1)SCC2)Nc1ccc(-c2ccccc2)cn1`, the “percentage of GFP+” value is inactive: 49.2%.
Under `COC(c1ccccc1)(c1ccccc1)[C@H](Oc1nc(C)cc(C)n1)C(=O)O` [Ambrisentan] stands inactive: 52.6%; under `N#CC1(c2ccc(NC(=O)c3cccnc3NCc3ccncc3)cc2)CCCC1` [Apatinib], inactive: 28%.
Under `O=c1c(-c2ccc(O)cc2)coc2cc(O)ccc12` [Daidzein] stands inactive: 41.3%; under `COc1cc(Nc2c(C#N)cnc3cc(OCCCN4CCN(C)CC4)c(OC)cc23)c(Cl)cc1Cl` [Bosutinib], inactive: 37.8%; under `CCC(C)(C)c1ccc(CC(C)CN2C[C@@H](C)O[C@@H](C)C2)cc1` (stereo not given in full) [Amorolfine], inactive: 41.3%.
Under `CS(=O)(=O)CCNCc1ccc(-c2ccc3ncnc(Nc4ccc(OCc5cccc(F)c5)c(Cl)c4)c3c2)o1` [Lapatinib] stands inactive: 40.6%; under `O=C1Cc2cc(CCN3CCN(c4nsc5ccccc45)CC3)c(Cl)cc2N1` [Ziprasidone Mesylate, Ziprasidone], inactive: 42.2%; under `O=C(NCC1CN(c2ccc(N3CCOCC3=O)cc2)C(=O)O1)c1ccc(Cl)s1` (stereo not given) [Rivaroxaban], inactive: 48.2%.
In the case of `CCCCN(Cc1ccc(C(=O)NO)cc1)C(=O)Nc1ccccc1` [Nexturastat A], the “percentage of GFP+” value was inactive: 47.5%.
For the molecule `CCCCCCCCCCCCCCCC[N+](C)(C)C` [Cetrimonium], the “percentage of GFP+” value was inactive: 39.4%.
With `CN(C)CCC(CSc1ccccc1)Nc1ccc(S(=O)(=O)NC(=O)c2ccc(N3CCN(Cc4ccccc4-c4ccc(Cl)cc4)CC3)cc2)cc1[N+](=O)[O-]` (stereo not given), the “percentage of GFP+” value is inactive: 47.4%.
Under `Nc1nccs1` [Aminothiazole] stands inactive: 43.8%; under `NC(=O)c1cccnc1` [Nicotinamide], inactive: 44.1%; under `C/N=C(/NC#N)NCCSCc1[nH]cnc1C` [Cimetidine], inactive: 44.7%.
Under `Fc1cc(-c2cccc3ncc(-c4cnn(C5CCNCC5)c4)nc23)cc(F)c1CN1CCOCC1` stands inactive: 51.6%; under `COc1cc([C@H]2Oc3cc([C@H]4Oc5cc(O)cc(O)c5C(=O)[C@@H]4O)ccc3O[C@@H]2CO)ccc1O` [Silibinin A], inactive: 40.7%; under `C[C@@H]1O[C@@H](O[C@H]2[C@H](Oc3cc(O)c4c(c3)O[C@H](c3ccc(O)cc3)CC4=O)O[C@H](CO)[C@@H](O)[C@@H]2O)[C@H](O)[C@H](O)[C@H]1O` [Naringin], inactive: 40%.
Under `CCc1cc(C(N)=S)ccn1` [Ethionamide] stands inactive: 37.8%; under `CS(=O)(=O)c1ccc(C(=O)Nc2ccc(Cl)c(-c3ccccn3)c2)c(Cl)c1` [Vismodegib], inactive: 41.8%; under `COC(=O)C1=C(C)N=C(C)/C(=C(/O)OC)C1c1ccccc1[N+](=O)[O-]` (stereo not given) [Nifedipine], inactive: 34.3%.
In the case of `CC(C)(C)NC[C@H](O)COc1nsnc1N1CCOCC1` [Timolol], the “percentage of GFP+” value is inactive: 39.3%.
For the molecule `COc1ccc(CNCc2cccc3ccccc23)cc1`, the “percentage of GFP+” value is inactive: 44.3%.
Under `Cn1ncnc1[C@H]1c2nnc(O)c3cc(F)cc(c23)N[C@@H]1c1ccc(F)cc1` stands inactive: 42.7%; under `Nc1cccc2c1CN(C1CCC(=O)NC1=O)C2=O` (stereo not given) [Lenalidomide], inactive: 46%.
As to `Cn1cnc2c(F)c(Nc3ccc(Br)cc3F)c(C(=O)NOCCO)cc21`, the “percentage of GFP+” value was inactive: 44.7%.
With `Cc1cc(O)c2c(c1)C(=O)c1cc(O)cc(O)c1C2=O` [Emodin], the “percentage of GFP+” value was inactive: 43%.
Under `Nc1ccc(N=Nc2ccccc2)c(N)n1` [Phenazopyridine] stands inactive: 46.9%; under `C[C@H](Nc1ncnc2[nH]cnc12)c1cc2cccc(Cl)c2c(=O)n1-c1ccccc1`, inactive: 36%; under `CCOC(=O)c1ccc(OC(=O)CCCCCN=C(N)N)cc1` [Gabexate], inactive: 47.9%.
With `NC(=O)NO` [Hydroxyurea], the “percentage of GFP+” value is inactive: 43.5%.
Under `O=C(N/N=C/c1ccc(O)c(O)c1)c1cc2ccccc2cc1O` [Dynasore] stands inactive: 40.7%.
Under `CN1CCN(C2=Nc3cc(Cl)ccc3Nc3ccccc32)CC1` [Clozapine] stands inactive: 42.5%; under `COc1ccc2c(c1)c(CC(=O)O)c(C)n2C(=O)c1ccc(Cl)cc1` [Indomethacin], inactive: 43%.
On to `COc1cc2c(cc1-c1c(C)noc1C)ncc1nc(O)n([C@H](C)c3ccccn3)c12`, for which the “percentage of GFP+” value is inactive: 27.3%.
As to `O=C(c1cn(Cc2cncn2Cc2ccc(Br)cc2)cc1-c1cccc2ccccc12)N1CCOCC1`, the “percentage of GFP+” value is inactive: 38.4%.
As for `COc1ccccc1OCC(O)COC(N)=O` (stereo not given) [Methocarbamol], the “percentage of GFP+” value was inactive: 43.9%.
Under `COc1cccc2c1[O][Mn]13([Cl])<-[N](=C2)CC[N]->1=Cc1cccc(OC)c1[O]3` stands inactive: 38.6%; under `Nc1ccn([C@@H]2O[C@H](CO)[C@@H](O)[C@@H]2O)c(=O)n1` [Cytarabine], inactive: 26.8%.
Under `CCCCCCCCCCCCCCCCO` [1-Hexadecanol] stands inactive: 56%; under `Clc1ccccc1C(c1ccccc1)(c1ccccc1)n1ccnc1` [Clotrimazole], inactive: 48.2%; under `Cc1cc(C)cc(NC(=O)Cc2ccc(OC(C)(C)C(=O)O)cc2)c1` [Efaproxiral Sodium], inactive: 44.3%.
Regarding `CCCCOc1ccc(CC(=O)NO)cc1` [Bufexamac], the “percentage of GFP+” value is inactive: 45.8%.
Under `CCCCc1nc2cc(/C=C/C(=O)NO)ccc2n1CCN(CC)CC` [Pracinostat] stands inactive: 24.8%; under `COc1ccccc1Oc1c(NS(=O)(=O)c2ccc(C(C)(C)C)cc2)nc(-c2ncccn2)nc1OCCO` [Bosentan], inactive: 54%; under `CC(C)C1CCC(C(=O)N[C@H](Cc2ccccc2)C(=O)O)CC1` (stereo not given in full) [Nateglinide], inactive: 46.5%.
Under `CC1(C)O[C@@H]2[C@@H](CO[C@@]3(COS(N)(=O)=O)OC(C)(C)O[C@@H]23)O1` [Topiramate] stands inactive: 42.7%.
As for `N#Cc1c(Oc2ccc(F)c(NC(=O)Cc3cccc(C(F)(F)F)c3)c2)ccc2nc(NC(=O)C3CC3)sc12`, the “percentage of GFP+” value was inactive: 29.2%.
Under `CN1CCN(C(=O)c2cc3cc(Cl)ccc3[nH]2)CC1` stands inactive: 43.6%; under `Cc1ccc2c(c1)C(=O)[C@]1(O)CCN(c3ccccc3)C1=N2` [(S)-blebbistatin], inactive: 35.5%.
